Test results as given in the supplement of paper PMC11417369.
± gives the standard deviation of the averaged measurements. The list shows a part of the results.

test system: PfAP2-G AP2 domain (GST-tagged); test: gcPBM binding intensity (ln(normalized median fluorescence intensity)); higher = stronger DNA binding
Outline: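 Alexa488 anti-GST antibody, scanned at 488 nm, detected GST-tagged P. falciparum DNA-binding domains that had been expressed in E. coli and incubated for 1 h on an Agilent 4 × 180k array. The array carried primer-extended double-stranded 36-bp intergenic genomic probes and negative controls. Binding intensity is the highest Masliner-normalised natural-log median intensity across replicate spots of either orientation of each probe.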

Sequence | gcPBM binding intensity (ln)
TGTTATCAGAAAGCACGTACATATAATTATATATTC [XGTACX_site4188] | 11.4 ± 0.92
TTCTTATTTGTACTAGTGCAATAGAAAATAAATAAA [GTGCAC_site9731] | 11.2 ± 0.71
TATATAATATATATATGTACACATTTGCAAACAATG [XGTACX_site6941] | 11.6 ± 0.99
TAGAAAATCAGTTAAACACACACATAAAAAAAAAAA [CACACA_site8933] | 9.88 ± 0.16
TGTACCTACAAAATATGATATATTTTTATAAATTGT [XGTACX_negctrl_site498] | 10.6 ± 0.24
ATGAATTAATCTAATCGTACAATAAGCATTATTATA [XGTACX_site2571] | 11.1 ± 0.6
GAATATGTAAAGAAAGGTACACATGAAAATATGTGT [XGTACX_site446] | 11.2 ± 0.54
TATTTTTTCTTAAACACACACATATAGATTTATAAC [CACACA_site7354] | 10.2 ± 0.21
TGTCCTTATTGGCACACACACATATAAGAAATTTAA [CACACA_site5724] | 10.6 ± 0.42
TTTTTTAAAGCCTGTTCATCATCCTTACCTATCAAC [GTGCAC_negctrl_site452] | 10 ± 0.13
AACATATATAATATTTGTACTTATATACAAAATATG [XGTACX_site7502] | 11.1 ± 0.73
CTAATTCGTATATGCTGTACCTTTTTCTTACGACTA [XGTACX_site4392] | 11.3 ± 0.61
ATATGGAATGATCATAGTACATAATTTAAAATTTTA [XGTACX_site3568] | 10.8 ± 0.51
ACCCTATTTATATATACACACACATATATAAATAAA [CACACA_site8980] | 10.3 ± 0.37
ATAGGATGTTTGCACTGTACCAAAAAATGAGCTGCA [XGTACX_site2825] | 11.1 ± 0.68
ACTTTTTTGAACAACGTGCACGTATTCATAACAAAA | 10.7 ± 0.4
ATCAGATATATATATTGTACATTTATATATAAATCA [XGTACX_site1960] | 10.8 ± 0.45
ATTAAAAATTATATTTTATAAAAATTAAAAGAAATA [CACACA_negctrl_site65] | 9.655 ± 0.049
AAAGTATACAATGACGCATGCATATATATATACATA [TGCATGCA_site429] | 9.875 ± 0.064
ATTTATTTATCTAGCTATTCACCATTTTCTTTTGTT [CACACA_negctrl_site1259] | 9.72 ± 0.3
TCATGTAGTAAAAACTGTACAAATTATTTATCATGT [XGTACX_site1727] | 11 ± 0.64
ATAACTTTTGCGCGTACACACATTTATCCTCTTTAT [CACACA_site209] | 11.7 ± 0.96
AATATCACATTCCACGGTACACACTAAAAGAAAAAT [XGTACX_site7653] | 11 ± 0.69
ATAAATACGATTAATTAGGTTTGTATAAATTAAATT [GTGCAC_negctrl_site635] | 9.87
